# Data reported in PubChem BioAssay (Tox21).
# Inconclusive means that the source gave no clear call. Such entries were picked first, then a sample of the others. Entries that show only a call come without a potency. Where the call is inconclusive, the potency comes from a doubtful curve fit. Calls of active or inactive are those of the source. Unless noted, calls come from the whole dose curve.
# Assay: qHTS assay to identify small molecule agonists of the hypoxia (HIF-1) signaling pathway - cell viability counter screen (AID 1224844); note: nearly all actives have a fitted effect of over 50% in size
# Settings: HRE-bla ME-180 viability, CellTiter-Glo luminescence, 17 h; series mostly up to 76.8 µM
# Summary of the method: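 Cytotoxicity was measured in parallel with the HRE-driven beta-lactamase readout: after 17 hrs of compound exposure at 37C, HRE-bla ME-180 cells received CellTiter-Glo and luminescence was recorded 30 min later.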
# Potency is the fitted concentration of half-maximal effect; tags give direction and shape of the fitted curve or compound fluorescence and quenching.
row,SMILES,Potency
1,C=CCOCC(O)CO (centres undefined),inactive
2,CC(C#N)(CCC(=O)O)N=NC(C)(C#N)CCC(=O)O (centres undefined),inactive
3,CCCCCCCCCCCCCCCC(=O)OC/C=C(C)/C=C/C=C(C)/C=C/C1=C(C)CCCC1(C)C,inactive
4,CC[C@H](C)[C@@H](C(=O)O)n1sc2ccccc2c1=O,"inconclusive: 54.9 µM [cytotoxic, single point]"
5,C[N+]12CCC(CC1)C(OC(=O)C(O)(c1ccccc1)c1ccccc1)C2 (centres undefined),"inconclusive: 2.68 µM [cytotoxic, single point]"
6,CC(C)(N)CO,inactive
7,COC(=O)Nc1ccc(Cl)c(Cl)c1,inactive
8,CCC(=O)O[C@]1(C(=O)CCl)[C@@H](C)C[C@H]2[C@@H]3CCC4=CC(=O)C=C[C@]4(C)[C@@]3(F)[C@@H](O)C[C@@]21C,"inconclusive: 21.3 µM [cytotoxic, partial curve]"
9,CCCCC(CC)COC(=O)CS (centres undefined),inactive

# Assay: qHTS assay to identify small molecule agonists of H2AX (AID 1224845; active = well fitted activation curve with a large enough effect in the signal ratio in the repeat runs, not every such curve was filed as active; inconclusive = weak or mixed curves; the % refers to the signal ratio)
# Settings: CHO-K1 phospho-H2AX Ser139 HTRF, 3 h; activation (H2AX phosphorylation): at 154 µM (top of the series) unless noted
# Summary of the method: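 Wild-type CHO-K1 cells, plated overnight, exposed 3hr at 37C to 15 concentrations (0.76% DMSO final). Lysed, then HTRF anti-pH2AX (S139) cryptate and anti-H2AX-d2 antibodies, 24 hr room temperature; 665/620 nm emission read.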
SMILES,Potency,activation (H2AX phosphorylation)
CC1(C)C(=O)NC(=O)N1CO,inactive,
FC(F)(Cl)C(F)(Cl)Cl,inactive,
O=C1OCCO1,inactive,
CC/C=C\CCOC(C)OCC (centres undefined),inactive,
OCCOCCOCCO,inactive,
OCCc1ccncc1,inactive,
CCOC(=O)C1=NN(c2ccccc2)C(=O)C1,"inconclusive: 45 µM [falling, partial curve, poor fit]",
CC(=O)Nc1cccc(O)c1,inactive,
C[C@@H]1CCC[C@H](C)N1CCCC(O)(c1ccccc1)c1ccccn1 (some centres undefined),inactive,
COC(=O)[C@@H]1[C@H]2C[C@H]3c4[nH]c5ccccc5c4CCN3C[C@@H]2CC[C@@H]1O,"inconclusive: 22 µM [falling, single point]",
C1=COCCC1,inactive,
O=C1c2ccccc2C(=O)C1c1ccccc1,inactive,
COc1cc(/C=C/C(N)=O)cc(OC)c1OC,inactive,
SCCOCCOCCS,"inconclusive: 127 µM [rising, single point]",
CCN(Cc1cccc(S(=O)(=O)O)c1)c1ccc(C(=C2C=CC(=[N+](CC)Cc3cccc(S(=O)(=O)[O-])c3)C=C2)c2ccccc2)cc1,inconclusive: 70.7 µM,
O=C(O)c1ccc(O)c(O)c1,inconclusive: 113 µM [cytotoxic],
CC(C)CO,inactive,
O=C(O)c1ccc(C(=O)O)c(C(=O)O)c1,inactive,
O=C(O)c1cc(C(=O)O)c(C(=O)O)cc1C(=O)O,inactive,
COc1c(N2CCNC(C)C2)c(F)cc2c(=O)c(C(=O)O)cn(C3CC3)c12 (centres undefined),inactive,
O=C(O)CNC(=O)CNC(=O)CNC(=O)CSC(=O)c1ccccc1,inactive,
Cc1ccnc(N)c1,"inconclusive: 1.01 µM [falling, single point]",
O=S(=O)(O)c1cc(S(=O)(=O)O)c2ccc3c(S(=O)(=O)O)cc(S(=O)(=O)O)c4ccc1c2c43,"inconclusive: 24 µM [falling, single point]",
COc1cc(C)ccc1C(C)C,inactive,
O=S1OCCO1,inactive,
Cc1ccc(C(=O)C(=O)O)cc1C,inactive,
C[Si]1(C)N[Si](C)(C)N[Si](C)(C)N1,inactive,
Cc1ccc(-c2ncc(Cl)cc2-c2ccc(S(C)(=O)=O)cc2)cn1,inactive,
CC(=O)CC(N)=O,,inconclusive: 7.82%
Oc1cc(O)c(Cl)cc1Cl,"inconclusive: 51.8 µM [falling, full curve]",
